Measured values taken from the supplement of paper PMC12217912.
This is one part of the list. The full chains were built here from the parent and the listed change. Values near 0.05 are background.

B1: TEV protease; numbered along this chain (parent)
chain: MGESLFKGPRDYNPISSSICHLTNESDGHTTSLYGIGFGPFIITNKHLFRRNNGTLVVQSLHGVFKVKDTTTLQQHLVDGRDMIIIRMPKDFPPFPQKLKFREPQREERICLVTTNFQTKSMSSMVSDTSCTFPSGDGIFWKHWIQTKDGQCGSPLVSTRDGFIVGIHSASNFTNTNNYFTSVPKNFMELLTNQEAQQWVSGWRLNADSVLWGGHKVFMVKPEEPFQPVKEATQL

Variants of: B1
Test: raw area under fraction-flipped curve 0-4 h after induction (AUC4h, not background-subtracted), DNA-recorder readout of cleavage of the substrate (dimensionless); higher = more cleavage of the substrate by the protease variant
Conditions: temperature: 34 °C; time window: 0-4 h after rhamnose induction
Protocol: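 In vivo DNA recorder in E. coli TOP10(DE3) ΔrhaA at 34 °C. Each TEVp single-site mutant (parent TEVp 0) is paired with a single-site variant of the 7-mer TEVs (canonical ENLYFQ|S). The substrate sits between flexible linkers in a Bxb1-sfGFP-TEVs-SsrA fusion, so cleavage stabilises Bxb1 and speeds flipping of a recombination array, read by NGS. The value is the raw area under the fraction-flipped curve over 0-4 h after rhamnose induction (AUC4h), with ≥20 reads per time point. It is not background-subtracted; inactive controls average about 0.047.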
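Note: Bxb1 expression induced with 0.2% (w/v) L-rhamnose at OD600 near 0.5, cultures sampled hourly, flipped fraction per protease–substrate barcode pair counted by paired-end Illumina sequencing.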

Variant | area with substrate ENLYFAS | area with substrate ENLYFCS | area with substrate ENLYFES | area with substrate ENLYFFS | area with substrate ENLYFGS | area with substrate ENLYFHS | area with substrate ENLYFIS | area with substrate ENLYFKS | area with substrate ENLYFMS | area with substrate ENLYFNS | area with substrate ENLYFPS | area with substrate ENLYFRS | area with substrate ENLYFSS | area with substrate ENLYFTS | area with substrate ENLYFVS | area with substrate ENLYFWS | area with substrate ENLYFYS | area with substrate ENLYFDS | area with substrate ENLYFLS
MGESLFKGPRDYNPISSSICHLTNESDGHTTSLYGIGFGPFIITNKHLFRRNNGTLVVQSLHGVFKVKDTTTLQQHLVDGRDMIIIRMPIDFPPFPQKLKFREPQREERICLVTTNFQTKSMSSMVSDTSCTFPSGDGIFWKHWIQTKDGQCGSPLVSTRDGFIVGIHSASNFTNTNNYFTSVPKNFMELLTNQEAQQWVSGWRLNADSVLWGGHKVFMVKPEEPFQPVKEATQL [K90I] | 0.0724 | 0.0463 | 0.0584 | 0.0658 | 0.0627 | 0.0519 | 0.0576 | 0.0589 | 0.0723 | 0.0741 | 0.0578 | 0.0546 | 0.1 | 0.0615 | 0.0635 | 0.0627 | 0.0474 | – | –
MGESLFKGPRDYNPISSSICHLTNESDGHTTSLYGIGFGPFIITNKHLFRRNNGTLVVQSLHGVFKVKDTTTLQQHLVDGRDMIIIRMPKDFPPFPQKLWFREPQREERICLVTTNFQTKSMSSMVSDTSCTFPSGDGIFWKHWIQTKDGQCGSPLVSTRDGFIVGIHSASNFTNTNNYFTSVPKNFMELLTNQEAQQWVSGWRLNADSVLWGGHKVFMVKPEEPFQPVKEATQL [K100W] | 0.0567 | 0.0606 | 0.0701 | – | 0.0655 | 0.0628 | 0.0596 | – | 0.0644 | 0.0591 | – | 0.0539 | 0.0771 | – | – | – | 0.0708 | – | –
MGESLFKGPRDYNPISSSICHLTNESDGHTTSLYGIGFGPFIITNKHLFRRNNGTLVVQSLHGVFKVKDTTTLQQHLVDGRDMIIIRMPKDFPPFPQKLTFREPQREERICLVTTNFQTKSMSSMVSDTSCTFPSGDGIFWKHWIQTKDGQCGSPLVSTRDGFIVGIHSASNFTNTNNYFTSVPKNFMELLTNQEAQQWVSGWRLNADSVLWGGHKVFMVKPEEPFQPVKEATQL [K100T] | 0.0617 | 0.0494 | 0.064 | 0.065 | – | – | 0.0308 | – | 0.0571 | 0.0633 | 0.0787 | – | 0.0501 | – | 0.0637 | – | 0.0437 | – | –
MGESLFKGPRDYNPISSSICHLTNESDGHTTSLYGIGFGPFIITNKHLFRRNNGTLVVQSLHGVFKVKDTTTLQQHLVDGRDMIIIRMPKDTPPFPQKLKFREPQREERICLVTTNFQTKSMSSMVSDTSCTFPSGDGIFWKHWIQTKDGQCGSPLVSTRDGFIVGIHSASNFTNTNNYFTSVPKNFMELLTNQEAQQWVSGWRLNADSVLWGGHKVFMVKPEEPFQPVKEATQL [F92T] | 0.0461 | – | 0.0571 | 0.0648 | – | 0.0711 | 0.0489 | – | 0.0591 | – | 0.0634 | 0.0547 | 0.0686 | 0.031 | 0.0165 | – | 0.0467 | – | –
MGESLFKGPRDYNPISSSICHLTNESDGHTTSLYGIGFGPFIITNKHLFRRNNGTLVVQSLHGVFKVKDTTTLQQHLVDGRDMIIIRMPKDFPDFPQKLKFREPQREERICLVTTNFQTKSMSSMVSDTSCTFPSGDGIFWKHWIQTKDGQCGSPLVSTRDGFIVGIHSASNFTNTNNYFTSVPKNFMELLTNQEAQQWVSGWRLNADSVLWGGHKVFMVKPEEPFQPVKEATQL [P94D] | 0.0525 | – | – | 0.0637 | – | – | 0.0556 | 0.0664 | 0.0648 | – | – | 0.074 | – | 0.0501 | – | – | 0.0619 | 0.0532 | 0.052
MGESLFKGPRDYNPISSSICHLTNESDGHTTSLYGIGFGPFIITNKHLFRRNNGTLVVQSLHGVFKVKDTTTLQQHLVDGRDMIIIRMPKDFPEFPQKLKFREPQREERICLVTTNFQTKSMSSMVSDTSCTFPSGDGIFWKHWIQTKDGQCGSPLVSTRDGFIVGIHSASNFTNTNNYFTSVPKNFMELLTNQEAQQWVSGWRLNADSVLWGGHKVFMVKPEEPFQPVKEATQL [P94E] | 0.0493 | – | 0.0689 | 0.0714 | – | 0.0605 | 0.0507 | 0.105 | 0.0693 | 0.0885 | 0.0631 | 0.0542 | 0.0528 | 0.0616 | 0.0571 | – | – | – | –
MGESLFKGPRDYNPISSSICHLTNESDGHTTSLYGIGFGPFIITNKHLFRRNNGTLVVQSLHGVFKVKDTTTLQQHLVDGRDMIIIRMPKDFPQFPQKLKFREPQREERICLVTTNFQTKSMSSMVSDTSCTFPSGDGIFWKHWIQTKDGQCGSPLVSTRDGFIVGIHSASNFTNTNNYFTSVPKNFMELLTNQEAQQWVSGWRLNADSVLWGGHKVFMVKPEEPFQPVKEATQL [P94Q] | 0.0686 | 0.0571 | 0.0594 | 0.0797 | 0.0638 | – | 0.05 | 0.0546 | 0.0668 | 0.0897 | 0.0677 | 0.0649 | 0.068 | 0.0622 | 0.0721 | 0.0547 | 0.0633 | 0.0707 | 0.0547
MGESLFKGPRDYNPISSSICHLTNESDGHTTSLYGIGFGPFIITNKHLFRRNNGTLVVQSLHGVFKVKDTTTLQQHLVDGRDMIIIRMPKCFPPFPQKLKFREPQREERICLVTTNFQTKSMSSMVSDTSCTFPSGDGIFWKHWIQTKDGQCGSPLVSTRDGFIVGIHSASNFTNTNNYFTSVPKNFMELLTNQEAQQWVSGWRLNADSVLWGGHKVFMVKPEEPFQPVKEATQL [D91C] | 0.0626 | 0.0346 | 0.0659 | 0.0657 | – | – | 0.069 | 0.0691 | 0.0591 | 0.0512 | 0.0668 | 0.0797 | 0.0534 | 0.0574 | – | 0.0765 | – | 0.0358 | 0.0611
MGESLFKGPRDYNPISSSICHLTNESDGHTTSLYGIGFGPFIITNKHLFRRNNGTLVVQSLHGVFKVKDTTTLQQHLVDGRDMIIIRMPKDFPPFPQQLKFREPQREERICLVTTNFQTKSMSSMVSDTSCTFPSGDGIFWKHWIQTKDGQCGSPLVSTRDGFIVGIHSASNFTNTNNYFTSVPKNFMELLTNQEAQQWVSGWRLNADSVLWGGHKVFMVKPEEPFQPVKEATQL [K98Q] | 0.0553 | – | 0.0689 | – | 0.0507 | 0.0537 | 0.0647 | – | 0.0674 | 0.0693 | 0.0616 | – | – | 0.0454 | – | – | 0.0509 | 0.0401 | –
